# Some of the results follow. Antibody binding of pooled human sera (four to six donors per pool; dilution not stated) to peptides of the Trypanosoma cruzi antigen TSSA on microarrays. Quantile-normalised fluorescence in arbitrary units, mean of duplicate arrays; higher = more binding. No active / inactive call. The uninfected pools are read here as the healthy donors of the same country. The strongest signals lie near the top of the scale (about 60,000).
# Assays:
# Experiment in all cases: antibody binding signal (normalised fluorescence) (arbitrary fluorescence units); higher = stronger serum antibody binding to peptide
# [1] = tested on: pooled sera of chronic Chagas disease patients, Bolivia
# Protocol: (§1)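 Microarray of 15-residue peptides over residues 30-55 of Trypanosoma cruzi TSSAII, each with 1 to 10 substitutions at naturally variable positions, probed with one serum pool per country.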
# [2] = tested on: pooled sera of chronic Chagas disease patients, Brazil
# Protocol: as §1
# [3] = tested on: pooled sera of chronic Chagas disease patients, Colombia
# Protocol: as §1
# [4] = tested on: pooled sera of chronic Chagas disease patients, Mexico
# Protocol: as §1
# [5] = tested on: pooled sera of chronic Chagas disease patients, USA
# Protocol: as §1
# [6] = tested on: pooled sera of uninfected people, Argentina
# Protocol: as §1
# [7] = tested on: pooled sera of uninfected people, Bolivia
# Protocol: as §1
# [8] = tested on: pooled sera of uninfected people, Brazil
# Protocol: as §1
# [9] = tested on: pooled sera of uninfected people, Colombia
# Protocol: as §1
# [10] = tested on: pooled sera of uninfected people, Mexico
# Protocol: as §1
# [11] = tested on: pooled sera of uninfected people, USA
# Protocol: as §1
Sequence,antibody binding signal [1],antibody binding signal [2],antibody binding signal [3],antibody binding signal [4],antibody binding signal [5],antibody binding signal [6],antibody binding signal [7],antibody binding signal [8],antibody binding signal [9],antibody binding signal [10],antibody binding signal [11]
GTEKKTATGGAPSQS,217,671,1940,1100,1090,331,457,117,105,294,162
STPPSGTENKAATGE,44800,48500,213,2820,34900,3770,398,359,534,352,348
GKDNKPAAGGAPSQS,305,1320,857,1070,690,183,305,116,107,102,128
KKPAAGGAPSQSGAS,205,234,1470,288,185,226,107,139,79.1,113,178
GTENKTATGGAPSQS,857,1060,1140,1880,946,413,492,261,212,490,156
ISTPPSGTEKKPATG,5310,41000,682,33800,11500,1370,1480,300,158,191,621
STPPSGKEKKTAAGE,1690,827,867,16800,1530,473,712,106,347,189,204
STPPSGTENKPATGG,48900,52900,366,10500,49000,9410,2070,812,845,681,863
GKDNKPATGGTPSQS,260,571,899,1370,1230,282,578,223,151,201,120
DNKAAAGETPSPSGA,322,5740,191,251,1260,160,323,213,116,342,621
GTDKKPAAGGAPSPP,429,1110,11200,1010,1460,225,312,225,145,642,176
TDNKTAAGGTPSQSG,359,398,4460,431,1330,442,294,1370,181,2350,174
GTEKKPAAGGTPSPS,199,745,5610,1390,1920,142,969,1910,218,407,1570
PSGKEKKPATGGTPS,4020,6920,11800,10800,7110,447,578,219,168,121,214
GKEKKAAAGGAPSQS,205,240,4330,2060,1290,118,83.8,132,90.4,86,119
KDKKAATGEAPSQPG,3080,31700,118,174,17400,256,76.5,86.8,170,85.3,98.9
KDKKTAAGETPSQPG,315,17200,252,169,881,124,96.7,107,406,91.4,112
KDNKPAAGETPSQSG,201,18000,301,235,2220,465,485,211,300,512,94
GTEKKPAAGETPSQP,1860,33100,1060,1640,3630,90.1,1200,1990,788,410,791
DKKPAAGGTPSPSGA,199,309,5530,308,1220,219,138,1490,196,93.6,222
ENKTAAGGAPSPSGA,1620,523,7090,708,1160,431,206,511,186,297,223
KTAAGGTPSPPGASS,200,204,7970,668,1140,186,153,494,190,746,179
SGTEKKAATGETPSP,2110,9760,488,451,12400,385,438,279,577,264,960
KDNKAATGETPSPSG,1000,15100,273,268,13000,391,623,174,193,263,3020
PPSGKDKKTATGGAP,242,559,949,30500,1510,274,320,96.3,271,84,174
SSTPPSGKDNKAAAG,9540,3890,285,36400,2420,473,494,145,190,106,215
STPPSGKDNKTAAGG,9010,10000,1930,29700,4000,433,425,174,226,129,241

Sequence,antibody binding signal [1],antibody binding signal [2],antibody binding signal [3],antibody binding signal [4],antibody binding signal [5],antibody binding signal [6],antibody binding signal [7],antibody binding signal [8],antibody binding signal [9],antibody binding signal [10],antibody binding signal [11]
PSGKEKKAATGEAPS,4450,16700,3840,4700,19200,595,260,110,305,97,138
SGTEKKAAAGGAPSQ,253,1260,9060,2150,1490,185,368,307,147,157,139
TISTPPSGTENKTAT,51100,50800,349,4130,27300,3940,637,366,993,695,602
TDKKPAAGEAPSQSG,13200,20400,276,238,14800,66.4,298,146,78.5,139,99.8
DNKTAAGGAPSQPGA,1910,4040,4730,550,299,268,423,399,349,850,265
KEKKAATGGAPSQPG,218,1140,265,1240,454,217,141,134,295,106,127
GTDKKTAAGETPSQP,1340,25100,1270,442,1520,121,352,154,1110,179,108
SGKENKTAAGEAPSQ,9300,19100,5710,4650,18000,8450,3280,192,517,676,219
SGTDKKAATGGTPSP,870,2280,5940,1310,1350,304,196,533,1250,759,203
TDKKTAAGEAPSQPG,15100,35500,354,450,7490,246,259,410,867,175,107
NKAATGETPSQSGAS,8080,28200,196,199,11400,500,844,440,302,708,1040
KDNKAATGETPSPPG,1930,18400,257,211,9920,307,478,242,242,160,1910
GKDKKPAAGEAPSQP,3770,32800,2510,3310,11900,111,71.6,87.2,122,70.4,67.4
PSGTDKKTATGGAPS,294,4130,3020,2120,1740,373,553,129,161,211,249
TEKKAAAGEAPSPPG,263,5770,487,583,12300,142,149,226,114,205,153
GKDNKTAAGGAPSPS,321,279,3540,812,686,190,138,180,178,105,133
KDNKPAAGGAPSPPG,183,1520,1000,133,725,274,235,161,165,146,137
TEKKPAAGGAPSQPG,224,5240,5910,595,1700,197,322,563,118,251,1200
SGKDKKAATGGTPSQ,269,320,793,813,917,152,80.4,138,313,82.6,129
KEKKPATGGAPSPPG,370,468,468,969,904,274,392,98.9,80.8,89,290
GKENKAATGETPSQS,1930,27400,17900,14000,24800,530,231,118,170,153,241
GTENKAATGEAPSQP,44800,45800,876,1080,30200,245,307,216,120,118,98.1
PPSGKENKAATGEAP,32300,28200,956,1820,28600,2840,1930,309,1300,249,349
PPSGKEKKPAAGEAP,598,2330,1740,11600,9030,559,910,129,397,83.5,302
TISTPPSGTENKPAT,51200,51800,1420,5370,33100,7830,1230,585,855,760,830
KDNKTATGETPSPPG,361,2610,2220,187,7090,504,298,230,291,151,1520
SGTDNKTAAGETPSP,211,41700,421,290,999,138,628,1240,170,174,643
